From article PMC6084981
Substitutions are numbered along the chain they refer to. Read-outs that look alike come from different tables or passages of the source. Results are given in words; binding and its absence hold for the method and conditions named. In cells and extracts the contact can be indirect. Some binding calls cover weakened binding; strength is not graded here. For some assays here: Tags and fused reporters may be left off the sequences shown.

Sequences of proteins named here, by UniProt entry; tags and fusion partners are left off. A change or cut given only in a name is not applied to a line headed by its entry. A line that says so, or that is headed by a name, gives the form on record, which may keep a tag or linker.
UniProt Q9M658: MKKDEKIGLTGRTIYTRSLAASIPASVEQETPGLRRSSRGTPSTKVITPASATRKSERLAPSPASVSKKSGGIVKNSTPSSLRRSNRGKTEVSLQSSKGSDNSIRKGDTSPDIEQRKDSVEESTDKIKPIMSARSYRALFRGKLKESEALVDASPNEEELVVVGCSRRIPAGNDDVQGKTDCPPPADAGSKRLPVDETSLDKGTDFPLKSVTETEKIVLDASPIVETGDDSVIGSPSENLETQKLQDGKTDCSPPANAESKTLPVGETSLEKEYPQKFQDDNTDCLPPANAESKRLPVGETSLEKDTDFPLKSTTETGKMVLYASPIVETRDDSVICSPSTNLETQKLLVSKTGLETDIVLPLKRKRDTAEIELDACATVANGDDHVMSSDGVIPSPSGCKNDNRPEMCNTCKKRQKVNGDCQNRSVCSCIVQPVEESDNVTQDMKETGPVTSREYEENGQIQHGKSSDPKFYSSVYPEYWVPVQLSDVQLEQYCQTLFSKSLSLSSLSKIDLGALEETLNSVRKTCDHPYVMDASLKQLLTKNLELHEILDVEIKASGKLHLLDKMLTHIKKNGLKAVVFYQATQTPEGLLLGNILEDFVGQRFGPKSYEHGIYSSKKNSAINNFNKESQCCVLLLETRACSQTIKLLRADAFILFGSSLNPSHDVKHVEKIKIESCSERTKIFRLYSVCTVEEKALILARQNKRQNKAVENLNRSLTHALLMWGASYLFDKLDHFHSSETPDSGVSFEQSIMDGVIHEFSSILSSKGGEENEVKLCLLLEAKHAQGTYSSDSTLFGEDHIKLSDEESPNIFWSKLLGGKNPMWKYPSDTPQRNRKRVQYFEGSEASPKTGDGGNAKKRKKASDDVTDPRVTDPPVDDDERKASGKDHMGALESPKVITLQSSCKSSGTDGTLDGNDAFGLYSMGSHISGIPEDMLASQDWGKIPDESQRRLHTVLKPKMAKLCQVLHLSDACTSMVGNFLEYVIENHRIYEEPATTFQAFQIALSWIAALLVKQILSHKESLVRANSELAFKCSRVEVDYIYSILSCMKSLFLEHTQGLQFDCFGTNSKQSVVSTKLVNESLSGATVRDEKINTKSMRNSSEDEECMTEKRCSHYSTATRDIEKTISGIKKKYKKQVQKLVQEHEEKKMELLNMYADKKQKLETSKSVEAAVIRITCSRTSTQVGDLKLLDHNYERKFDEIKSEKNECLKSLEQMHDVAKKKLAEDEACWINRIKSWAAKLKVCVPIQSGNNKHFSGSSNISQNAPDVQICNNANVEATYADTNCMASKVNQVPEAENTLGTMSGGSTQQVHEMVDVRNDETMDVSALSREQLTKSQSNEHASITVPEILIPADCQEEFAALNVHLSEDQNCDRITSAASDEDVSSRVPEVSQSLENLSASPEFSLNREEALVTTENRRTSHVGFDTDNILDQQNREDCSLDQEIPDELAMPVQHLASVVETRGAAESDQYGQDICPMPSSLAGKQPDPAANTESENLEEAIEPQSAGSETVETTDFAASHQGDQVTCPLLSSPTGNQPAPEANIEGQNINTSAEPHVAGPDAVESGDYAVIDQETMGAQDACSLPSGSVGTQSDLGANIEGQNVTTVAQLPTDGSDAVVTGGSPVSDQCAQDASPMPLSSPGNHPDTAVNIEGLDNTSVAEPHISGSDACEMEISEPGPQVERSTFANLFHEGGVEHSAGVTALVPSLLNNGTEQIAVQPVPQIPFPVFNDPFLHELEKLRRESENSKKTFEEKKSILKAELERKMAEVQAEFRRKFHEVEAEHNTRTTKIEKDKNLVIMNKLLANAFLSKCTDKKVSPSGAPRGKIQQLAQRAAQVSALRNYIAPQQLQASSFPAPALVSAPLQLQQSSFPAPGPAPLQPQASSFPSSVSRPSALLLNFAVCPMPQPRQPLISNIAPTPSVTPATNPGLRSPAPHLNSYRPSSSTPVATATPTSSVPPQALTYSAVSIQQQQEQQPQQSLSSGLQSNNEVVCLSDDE
MOM1-CMM2-M-Flag (Q9M658, form named): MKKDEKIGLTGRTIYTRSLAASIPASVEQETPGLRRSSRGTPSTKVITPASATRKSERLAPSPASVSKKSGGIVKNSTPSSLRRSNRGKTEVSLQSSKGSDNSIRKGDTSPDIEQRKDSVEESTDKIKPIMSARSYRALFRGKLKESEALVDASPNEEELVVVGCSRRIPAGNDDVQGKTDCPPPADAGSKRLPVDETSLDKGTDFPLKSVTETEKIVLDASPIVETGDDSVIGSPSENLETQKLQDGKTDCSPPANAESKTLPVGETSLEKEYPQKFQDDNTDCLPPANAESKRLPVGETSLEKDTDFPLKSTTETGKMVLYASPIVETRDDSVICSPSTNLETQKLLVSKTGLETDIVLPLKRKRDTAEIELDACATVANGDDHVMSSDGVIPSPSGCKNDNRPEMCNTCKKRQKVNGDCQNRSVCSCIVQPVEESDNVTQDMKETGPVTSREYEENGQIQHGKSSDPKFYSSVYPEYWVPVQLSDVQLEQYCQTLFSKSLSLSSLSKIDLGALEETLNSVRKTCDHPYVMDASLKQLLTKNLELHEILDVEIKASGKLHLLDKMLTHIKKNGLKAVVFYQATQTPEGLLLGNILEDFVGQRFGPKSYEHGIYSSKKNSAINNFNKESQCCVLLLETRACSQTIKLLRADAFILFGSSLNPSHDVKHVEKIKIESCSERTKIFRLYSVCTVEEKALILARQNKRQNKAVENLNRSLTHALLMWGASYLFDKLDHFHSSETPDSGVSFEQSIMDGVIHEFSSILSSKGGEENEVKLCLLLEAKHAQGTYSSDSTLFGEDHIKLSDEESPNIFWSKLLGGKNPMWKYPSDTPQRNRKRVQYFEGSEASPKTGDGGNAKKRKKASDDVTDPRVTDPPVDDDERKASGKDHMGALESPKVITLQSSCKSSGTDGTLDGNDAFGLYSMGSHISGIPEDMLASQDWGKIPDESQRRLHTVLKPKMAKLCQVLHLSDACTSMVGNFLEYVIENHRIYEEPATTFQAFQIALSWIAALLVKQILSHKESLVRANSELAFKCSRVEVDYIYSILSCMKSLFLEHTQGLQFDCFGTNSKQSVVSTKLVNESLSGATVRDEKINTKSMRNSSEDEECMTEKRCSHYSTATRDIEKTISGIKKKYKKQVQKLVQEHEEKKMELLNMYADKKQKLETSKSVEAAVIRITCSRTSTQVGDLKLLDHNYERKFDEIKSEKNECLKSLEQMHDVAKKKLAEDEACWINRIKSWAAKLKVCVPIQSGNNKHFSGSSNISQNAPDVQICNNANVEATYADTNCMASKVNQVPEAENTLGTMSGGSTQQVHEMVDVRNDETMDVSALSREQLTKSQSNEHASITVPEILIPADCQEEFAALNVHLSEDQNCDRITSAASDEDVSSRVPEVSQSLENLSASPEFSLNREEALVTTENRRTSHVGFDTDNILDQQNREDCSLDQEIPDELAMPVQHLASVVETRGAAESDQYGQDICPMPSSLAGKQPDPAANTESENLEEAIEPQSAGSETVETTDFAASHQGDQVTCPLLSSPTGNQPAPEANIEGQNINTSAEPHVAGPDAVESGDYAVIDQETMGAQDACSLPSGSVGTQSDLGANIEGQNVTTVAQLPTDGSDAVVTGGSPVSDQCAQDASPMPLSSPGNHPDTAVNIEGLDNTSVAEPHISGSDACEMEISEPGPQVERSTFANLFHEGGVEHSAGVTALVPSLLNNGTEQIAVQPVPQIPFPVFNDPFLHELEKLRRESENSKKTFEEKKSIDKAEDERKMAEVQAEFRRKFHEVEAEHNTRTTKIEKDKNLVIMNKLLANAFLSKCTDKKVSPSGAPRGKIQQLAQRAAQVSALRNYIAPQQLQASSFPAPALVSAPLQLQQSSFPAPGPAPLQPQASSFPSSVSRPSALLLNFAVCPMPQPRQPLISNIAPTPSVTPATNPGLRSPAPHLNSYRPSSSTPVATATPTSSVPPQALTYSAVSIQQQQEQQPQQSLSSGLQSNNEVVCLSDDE
UniProt Q9FLP6: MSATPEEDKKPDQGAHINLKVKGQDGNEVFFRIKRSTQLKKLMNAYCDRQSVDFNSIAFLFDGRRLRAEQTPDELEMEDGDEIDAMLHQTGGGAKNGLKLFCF

B1: PIAL2-Myc (protein, UniProt F4JYG0 1-760)
chain: MSTAAAARPVAGTGLREKTAASLVNSFRLASVTQRLRYHIQDGAKVDPKEFQICCISFAKGIDFAIANNDIPKKVEEFPWLLKQLCRHGTDVYTKTALMVLMISVKHACHLGWFSDSESQELIALADEIRTCFGSSGSTSPGIKSPGSTFSQIMERFYPFVKLGHVLVSFEVKAGYTMLAHDFYISKNMPHSLQEKIRLFVAQTDNIDTSACISNPPEVSFLLNGKGVEKRVNIAMDTGPQLPTNVTAQLKYGTNLLQVMGNFKGNYIIIIAFTGLVVPPEKPVLKDYLQSGVIEASPDSDIIEGPSRVSLSCPISRKRIKLPVKGQLCKHLQCFDFSNYVHINMRNPTWRCPHCNQPVCYPDIRLDQNMAKILKDVEHNAADVIIDAGGTWKVTKNTGETPEPVREIIHDLEDPMSLLNSGPVVFDLTGDDDAELEVFGDNKVEDRKPCMSDAQGQSNNNNTNKHPSNDDYSSIFDISDVIALDPEILSALGNTAPQPHQASNTGTGQQYSNLSQIPMSIDPMPVPVPFSQTPSPRDRPATTSTVFTIPNPSPQYSQVHASPVTPTGTYLGRTTSPRWNQTYQSQAPPMTTPYTSRKVSVPVTSQSPANVSSFVQSQHVPRVLSQPNNYGVRGLTSSHASTSRQHPSGPTVQSVSRLSDLVDVDLTVPDTSNWRPRMRGSLVPGSHSTALDHMIIRPSQQSQTSTRLNSSQPVQTPSVQTSQAQSPFTTAAYRTETVLGNRNHPVPAPPGIVRPTGPTS
B2: PIAL2-IND-M-Myc (protein, UniProt F4JYG0 1-760)
chain: B1 chain with D182A, F183A, I185A

Key:
Assay in all cases: co-IP; protein extract of F1 plants carrying a Flag-tagged and a Myc-tagged transgene; anti-Flag affinity gel, eluted with 3xFlag peptide, western blotting
MOM1-Flag (Arabidopsis) [1] = molecular target: MOM1-Flag (Arabidopsis) (UniProt Q9M658)
Flag-SUMO2 (Arabidopsis) = Flag-SUMO2 (Arabidopsis) (UniProt Q9FLP6)
[2] = molecular target: MOM1-CMM2-M-Flag (Arabidopsis) (UniProt Q9M658)
MOM1-Flag (Arabidopsis) [3] = molecular target: MOM1-Flag (Arabidopsis) (UniProt Q9M658); remark: listed apart in the source
Flag-PIAL2 (Arabidopsis) = molecular target: T1, Flag-PIAL2 (Arabidopsis) (UniProt F4JYG0)
T1 sequence: B1 chain

[4] = molecular target: MOM1-CMM2-M-Flag (Arabidopsis) (UniProt Q9M658); remark: listed apart in the source

Row | Molecule | binding (MOM1-Flag (Arabidopsis) [1]) | binding (Flag-SUMO2 (Arabidopsis)) | binding [2] | binding (MOM1-Flag (Arabidopsis) [3]) | binding (Flag-PIAL2 (Arabidopsis)) | binding [4]
1 | MOM1-Myc (from UniProt Q9M658 1-2001) | binds | no binding | no binding |  |  | 
2 | B1 |  |  |  | binds | binds | binds weakly
3 | B2 |  |  |  | no binding | no binding | 
